Laboratory results: patent publication US11236120B2, “Azithromycin derivatives with epithelial barrier enhancement properties” (EpiEndo Pharmaceuticals ehf, priority 2015, dated 2022)
Some results were stated once for a whole list of compounds, not compound by compound.

Tests used:
[1] = tested on: Mycobacterium avium complex (MAC); assay: Assay 2: STC colorimetric microplate assay, comparison over the Mycobacteria studied; assay type: cell-based, M. avium and M. intracellulare
VA10 cells = assay: Trans-epithelial resistance of immortalized VA10 cells cultured at air-liquid interface (ALI); assay type: cell-based, human
[2] = for each one of the Mycobacteria studied
[3] = Mycobacterium avium S1002170205 and Mycobacterium intracellulare S1305150028 (tested up to 1000 μg/ml)

Compound	MIC concentration relative to the MIC concentration of Azithromycin [1, 2]	ratio between the TER in the presence of test compound and the TER in the presence of media+diluent alone (VA10 cells)	MIC concentration relative to the MIC concentration of Azithromycin [1, 3]
CC[C@H]1OC(=O)[C@H](C)[C@@H](O[C@H]2C[C@@](C)(OC)[C@@H](O)[C@H](C)O2)[C@H](C)[C@@H](O[C@@H]2O[C@H](C)C[C@H](N(C)S(=O)(=O)c3ccc(C)cc3)[C@H]2O)[C@](C)(O)C[C@@H](C)CN(C)[C@H](C)[C@@H](O)[C@]1(C)O [Example 10, N-[(2S,3R,4S,6R)-2-[[(2R,3S,4R,5R,8R,10R,11R,12S,13S,14R)-2-ethyl-3,4,10-trihydroxy-13-[(2R,4R,5S,6S)-5-hydroxy-4-methoxy-4,6-dimethyl-tetrahydropyran-2-yl]oxy-3,5,6,8,10,12,14-heptamethyl-15-oxo-1-oxa-6-azacyclopentadec-11-yl]oxy]-3-hydroxy-6-methyl-tetrahydropyran-4-yl]-N,4-dimethyl-benzenesulfonamide]	over 4 ×	greater than 1.0	
CC[C@H]1OC(=O)[C@H](C)[C@@H](O)[C@H](C)[C@@H](O[C@@H]2O[C@H](C)C[C@H](N(C)C(=O)CCC(=O)O)[C@H]2O)[C@](C)(O)C[C@@H](C)CN(C)[C@H](C)[C@@H](O)[C@]1(C)O [Example 18, 4-[[(2S,3R,4S,6R)-2-[[(2R,3S,4R,5R,8R,10R,11R,12S,13S,14R)-2-ethyl-3,4,10,13-tetrahydroxy-3,5,6,8,10,12,14-heptamethyl-15-oxo-1-oxa-6-azacyclopentadec-11-yl]oxy]-3-hydroxy-6-methyl-tetrahydropyran-4-yl]-methyl-amino]-4-oxo-butanoic acid]	over 4 ×	greater than 1.0	over 15 ×
CC[C@H]1OC(=O)[C@H](C)[C@@H](O)[C@H](C)[C@@H](O[C@@H]2O[C@H](C)C[C@H](N(C)C(=O)COCc3ccccc3)[C@H]2O)[C@](C)(O)C[C@@H](C)CN(C)[C@H](C)[C@@H](O)[C@]1(C)O [Example 26, 2-benzyloxy-N-[(2S,3R,4S,6R)-2-[[(2R,3S,4R,5R,8R,10R,11R,12S,13S,14R)-2-ethyl-3,4,10,13-tetrahydroxy-3,5,6,8,10,12,14-heptamethyl-15-oxo-1-oxa-6-azacyclopentadec-11-yl]oxy]-3-hydroxy-6-methyl-tetrahydropyran-4-yl]-N-methyl-acetamide]	over 4 ×	greater than 1.0	over 15 ×
CC[C@H]1OC(=O)[C@H](C)[C@@H](O)[C@H](C)[C@@H](O[C@@H]2O[C@H](C)C[C@H](N(C)C(=O)Cc3ccccc3)[C@H]2O)[C@](C)(O)C[C@@H](C)CN(C)[C@H](C)[C@@H](O)[C@]1(C)O [Example 29, N-[(2S,3R,4S,6R)-2-[[(2R,3S,4R,5R,8R,10R,11R,12S,13S,14R)-2-ethyl-3,4,10,13-tetrahydroxy-3,5,6,8,10,12,14-heptamethyl-15-oxo-1-oxa-6-azacyclopentadec-11-yl]oxy]-3-hydroxy-6-methyl-tetrahydropyran-4-yl]-N-methyl-2-phenyl-acetamide]	over 4 ×	greater than 1.0	over 15 ×
CC[C@H]1OC(=O)[C@H](C)[C@@H](O)[C@H](C)[C@@H](O[C@@H]2O[C@H](C)C[C@H](NC)[C@H]2O)[C@](C)(O)C[C@@H](C)CN(C)[C@H](C)[C@@H](O)[C@]1(C)O [Example 30, (2R,3S,4R,5R,8R,10R,11R,12S,13S,14R)-2-ethyl-3,4,10,13-tetrahydroxy-11-[(2S,3R,4S,6R)-3-hydroxy-6-methyl-4-(methylamino)tetrahydropyran-2-yl]oxy-3,5,6,8,10,12,14-heptamethyl-1-oxa-6-azacyclopentadecan-15-one]	over 4 ×	greater than 1.0	over 15 ×
